Reference: article PMC4336329 (PLoS ONE, 2015)
In all, about 310,000 compounds went through this assay and about 2,200 (0.71%) showed an effect of 50% or more. Effects have a minus sign here. The list shows a part of the results.

These compounds were tested against human ether-à-go-go-related gene (hERG) potassium channel (human, UniProt Q12809) (assay: primary screen, population patch clamp on CHO cells stably expressing hERG).
human ether-à-go-go-related gene (hERG) potassium channel, sequence (Q12809 whole entry, looked up): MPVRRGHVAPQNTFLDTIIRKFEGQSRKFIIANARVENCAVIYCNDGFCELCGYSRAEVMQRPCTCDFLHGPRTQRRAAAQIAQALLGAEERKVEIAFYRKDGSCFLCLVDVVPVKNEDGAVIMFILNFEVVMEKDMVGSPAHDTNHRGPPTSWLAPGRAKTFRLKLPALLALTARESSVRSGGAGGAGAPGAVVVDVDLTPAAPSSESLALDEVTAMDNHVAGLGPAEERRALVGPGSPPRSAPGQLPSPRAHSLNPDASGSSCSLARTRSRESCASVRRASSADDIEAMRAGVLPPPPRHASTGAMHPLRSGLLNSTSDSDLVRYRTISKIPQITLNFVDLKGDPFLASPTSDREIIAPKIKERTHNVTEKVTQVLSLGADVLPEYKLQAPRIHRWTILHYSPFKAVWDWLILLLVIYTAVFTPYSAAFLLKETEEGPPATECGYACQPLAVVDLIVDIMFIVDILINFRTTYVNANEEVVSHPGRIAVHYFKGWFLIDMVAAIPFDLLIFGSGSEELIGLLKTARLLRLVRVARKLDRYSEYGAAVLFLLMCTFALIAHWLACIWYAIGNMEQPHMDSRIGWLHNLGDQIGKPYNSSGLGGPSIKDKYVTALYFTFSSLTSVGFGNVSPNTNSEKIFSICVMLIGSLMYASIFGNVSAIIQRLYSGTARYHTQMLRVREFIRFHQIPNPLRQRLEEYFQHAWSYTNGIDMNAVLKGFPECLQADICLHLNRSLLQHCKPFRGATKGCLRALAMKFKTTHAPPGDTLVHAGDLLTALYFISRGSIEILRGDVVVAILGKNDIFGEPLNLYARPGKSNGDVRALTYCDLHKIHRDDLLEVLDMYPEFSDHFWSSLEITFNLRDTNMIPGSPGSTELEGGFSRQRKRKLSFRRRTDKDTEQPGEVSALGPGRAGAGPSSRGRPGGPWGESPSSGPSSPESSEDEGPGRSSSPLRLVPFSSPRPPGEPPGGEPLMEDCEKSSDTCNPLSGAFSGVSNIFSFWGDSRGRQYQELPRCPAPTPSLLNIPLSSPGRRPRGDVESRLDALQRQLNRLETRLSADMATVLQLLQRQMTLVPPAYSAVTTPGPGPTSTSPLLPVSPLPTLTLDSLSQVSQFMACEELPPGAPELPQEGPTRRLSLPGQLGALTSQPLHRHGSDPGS

| Compound | hERG current change (%, negative = inhibition) at 1uM |
| --- | --- |
| CC12CC(c3ccccc3O1)C(C(=O)NCc1ccccc1)C(=O)N2 (stereo not drawn) | 8.85% |
| COC(=O)c1c(NC(=O)C(=O)NCCCN2CCOCC2)sc2c1CC(C)(C)OC2 | 11.3% |
| FC(F)(F)c1ccccc1CN1CCCC(N2CCN(c3ccccc3)CC2)C1 (stereo not drawn) | 17.4% |
| COc1cccc(NC(=O)CSc2nc3ncc(Br)cc3[nH]2)c1 | 12.8% |
| Cc1c(Cl)cccc1NC(=S)NNS(=O)(=O)c1ccc([N+](=O)[O-])cc1 | 18.6% |
| CCC(C)NS(=O)(=O)c1ccc(N)cc1 (stereo not drawn) | 26% |
| CC(=O)Nc1ccc(S(=O)(=O)Nc2nc(C)cc(-n3nc(C)cc3C)n2)cc1 | 2.5% |
| COC(=O)c1cn(NC(=O)Cn2nc([N+](=O)[O-])c(Cl)c2C)c(=O)c2ccccc12 | 2.91% |
| Cc1cc(NC(=O)CCl)nn1C | -3.89% |
| CC1CCc2sc(NC(=O)c3ccc(N4C(=O)CCC4=O)cc3)c(C(N)=O)c2C1 (stereo not drawn) | 8.88% |
| COc1ccc(N(CC(=O)N/N=C/c2ccc3c(c2)OCO3)S(=O)(=O)c2ccccc2)cc1 | 5.63% |
| CCc1cc(OCCCSc2nc(C)cc(=O)[nH]2)ccc1Cl | -3.79% |
| Cn1c(SCC(=O)NCc2ccc3c(c2)OCO3)nnc1C1COc2ccccc2O1 (stereo not drawn) | -10.6% |
| CC1CCN(c2nc3c(c(=O)[nH]c(=O)n3C)n2CCCc2ccccc2)CC1 | -3.38% |
| COc1ccc(CN2CCS(=O)(=O)CC2)cc1OC | 10.9% |
| C=CCNC(=S)NCc1cccnc1 | 4.47% |
| COc1ccc(CCNC(=O)CCC(=O)Nc2ccc3nc(N4CCN(C)CC4)cc(C)c3c2)cc1OC | 5.53% |
| CCOC(=O)Cn1nnc(-c2ccc(SC)cc2)n1 | 19.5% |
| CN1CCN(CCCOc2ccc(-c3ccccc3)cc2)CC1.Cl | -38.8% |

| Compound | hERG current change (%, negative = inhibition) at 1uM |
| --- | --- |
| O=C(O)CNC(=O)c1cccc(C(F)(F)F)c1 | 8.98% |
| COCCNC(=O)CSc1nccn1Cc1ccc2c(c1)OCO2 | 8.62% |
| Cc1cc(C)n(CC(O)CN2C(=O)NC(C)(C)C2=O)n1 (stereo not drawn) | 16.4% |
| O=[N+]([O-])c1cccc(/C=C/c2ccncc2)c1 | 5.04% |
| CCC1NC(=O)c2cc(S(N)(=O)=O)c(Cl)cc2N1 (stereo not drawn) | 13% |
| Cc1c(C)n(C)c2ccc(C(=O)NCCCN3CCCCC3C)cc12 (stereo not drawn) | 6% |
| N#CC1=C(N)N(c2ccccc2)C2=C(C(=O)CCC2)C1c1ccccc1 (stereo not drawn) | -4.06% |
| COc1ccc(NC(=O)C2CCCN(C(=O)Nc3ccc(F)cc3)C2)cc1 (stereo not drawn) | 6% |
| CCCN(CCC)CCCNC(=O)c1ccc2c(c1)N(CC)C(=O)c1ccccc1S2=O (stereo not drawn) | -10.9% |
| COc1ccc(C(C)=O)cc1COC(=O)C1CC(=O)N(Cc2ccccc2)C1 (stereo not drawn) | 9.83% |
| CCOC(=O)N/N=C/c1ccccc1F | 2.04% |
| CC(C)C(=O)N=C1NC(=O)CS1 | 17.8% |
| Cc1ccc(-c2cc(-c3ccccc3)nc(N/N=C/c3cccnc3)n2)cc1 | 15.2% |
| CCc1ccccc1N(CC(=O)NCc1ccco1)C(=O)CCC(=O)Nc1nccs1 | 11.6% |
| COc1ccnc(Oc2ccccc2)c1C(=O)N/C=N/OCc1ccccc1 | 24.6% |
| Nc1ccc(CCC(=O)N2CCCC2)cc1 | 17.5% |
| CCn1c(=O)n(CC)c2cc(N3CCCC3)c(NC(=O)c3c(F)cccc3F)cc21 | 7.53% |
| Cc1ccc(Nc2nc(N)nc(CCl)n2)cc1 | 13.2% |
| CCC(=O)OC1(c2cccc(C)c2)CC(C)N(C)CC1C.Cl (stereo not drawn) | -6.92% |

| Compound | hERG current change (%, negative = inhibition) at 1uM |
| --- | --- |
| CSc1nsc(SCC(=O)Nc2ccc(F)cc2F)n1 | 3.68% |
| CCC1(CC)C(=O)C2=C3C1[C@H](C(=O)OC)C=C(C(=O)OC)C[C@H]3n1c(=O)n(C)c(=O)n1[C@H]2C (stereo partly drawn) | 19.5% |
| CCCOc1ccc(-c2nnn(CC(=O)N3CCC(C)CC3)n2)cc1 | 9.34% |
| CC(=O)c1cccc(NC(=O)CN2C=NS(=O)(=O)c3ccc(C)cc32)c1 | 2.59% |
| COc1ccc2sc(N(CCCN(C)C)C(=O)c3ccc(S(=O)(=O)N4CCc5ccccc5C4)cc3)nc2c1.Cl | 3.91% |
| Cc1ccc(NC2=C(Cl)C(=O)OC2OC(=O)c2ccco2)c(C)c1 (stereo not drawn) | 11% |
| S=c1[nH]nc(CSCc2ccc(Cl)cc2Cl)n1-c1ccccc1 | -3.59% |
| CCOC(=O)c1ccc(NC(=O)N2CCN(C3CCCCC3)CC2)cc1 | -0.154% |
| Cc1cccc(N/C(N)=N/c2nc(C)cc(C)n2)c1 | 6.77% |
| COc1ccc(CCNC(=O)c2nnc(Cc3c(F)cccc3Cl)o2)cc1OC | 10.8% |
| CCOc1ccc(OCC(=O)OCC(=O)N2CCN(C(=O)c3ccco3)CC2)cc1 | 4.2% |
| CC1CC(C)CN(C(=S)Nc2ccc(OC(F)F)cc2)C1 (stereo not drawn) | -45.1% |
| COc1ccc(NC(=O)CSc2nnc(-c3ccccc3C)n2N)cc1 | 21.3% |
| CCOC(=O)CSc1nc2c(sc(=S)n2-c2ccccc2)c(=O)n1-c1ccc(OC)cc1OC | 24.2% |
| N#C/C(=C\c1cccs1)C(=O)NCc1ccccc1 | 8.46% |
| CC(OC(=O)CNC(=O)c1ccc(F)cc1)C(=O)Nc1ccc(S(=O)(=O)N2CCOCC2)cc1 (stereo not drawn) | 0.716% |
| O=C(COc1ccccc1F)N1CCN(CCN2C(=O)c3cccc4cccc(c34)C2=O)CC1 | -17.5% |
| O=P(COCCCCCOCP(=O)(c1ccccc1)c1ccccc1)(c1ccccc1)c1ccccc1 | -2.19% |
| COc1ccccc1/C=N/NC(=O)CC(=O)NCc1ccccc1 | 3.35% |
